Experimental data taken from patent US20240262848A1, “HETEROCYCLIC COMPOUNDS, COMPOSITIONS THEREOF, AND METHODS OF TREATMENT THEREWITH” (BeiGene, Ltd., priority 2022, published 2024).

Experiments:
[1] = target: GST-tagged GDP-loaded WT KRAS (amino acids 1-169) (Homo sapiens, UniProt P01116); test: KRAS WT probe displacement assay (run with the KRAS G12V assay, TR-FRET); format: binding; details: Table 4; WT KRAS 3 nM, biotinylated probe 1 60 nM
[2] = target: GST-tagged GDP-loaded WT KRAS (amino acids 1-188) (Homo sapiens, UniProt P01116); test: KRAS WT probe displacement assay (run with the KRAS G12D assay, TR-FRET); format: binding; details: Table 5; WT KRAS 3 nM, biotinylated probe 1 60 nM

Structure (SMILES): CN1CCCOc2cc(-c3ccc(F)c4sc(N)c(C#N)c34)c(F)c3nc(OC[C@@]45CCCN4C[C@H](F)C5)nc1c23 [Example 2, 2-amino-7-fluoro-4-(11-fluoro-2-(((2R,7aS)-2-fluorotetrahydro-1H-pyrrolizin-7a(5H)-yl)methoxy)-4-methyl-4.5,6,7-tetrahydro-[1,5]oxazocino[4,3,2-de]quinazolin-10-yl)benzo[b]thiophene-3-carbonitrile]
- IC50 [1]: 4 nM
- IC50 [2]: 4 nM

Structure (SMILES): CN1c2nc(OC[C@@]34CCCN3C[C@H](F)C4)nc3c(F)c(-c4cc(N)cc(Cl)c4C(F)(F)F)nc(c23)O[C@H]2COCC[C@@H]21 [Example 49, 3-chloro-5-((7aR,11aS)-4-fluoro-2-(((2R,7aS)-2-fluorotetrahydro-1H-pyrrolizin-7a(5H)-yl)methoxy)-12-methyl-7a, 8,10,11,11a, 12-hexahydro-7,9-dioxa-1,3,6,12-tetraazapleiaden-5-yl)-4-(trifluoromethyl)aniline]
- IC50 [1]: 0.57 nM
- IC50 [2]: 0.57 nM

Structure (SMILES): CN1c2nc(OC[C@@]34CCCN3C[C@H](F)C4)nc3c(F)c(-c4cc(N)cc(Cl)c4C(F)(F)F)nc(c23)OC[C@@H]2COC[C@H]21 (single isomer, unassigned) [Example 68 Isomer 2]
- IC50 [1]: 0.69 nM
- IC50 [2]: 0.69 nM

Structure (SMILES): C#Cc1c(F)ccc2cc(O)cc(-c3nc4c5c(nc(OC[C@@]67CCCN6C[C@H](F)C7)nc5c3F)N(C)CCCO4)c12 [Example 10, 5-ethynyl-6-fluoro-4-(4-fluoro-2-(((2R,7aS)-2-fluorotetrahydro-1H-pyrrolizin-7a(5H)-yl)methoxy)-11-methyl-8,9,10,11-tetrahydro-7-oxa-1,3,6,11-tetraazacycloocta[de]naphthalen-5-yl)naphthalen-2-ol]
- IC50 [1]: 3 nM
- IC50 [2]: 3 nM

Structure (SMILES): CCN1c2nc(OC[C@@]34CCCN3C[C@H](F)C4)nc3c(F)c(-c4cc(N)cc(Cl)c4C(F)(F)F)nc(c23)OCCC12COC2 [Example 35, 3-chloro-5-(11-ethyl-4-fluoro-2-(((2R,7aS)-2-fluorotetrahydro-1H-pyrrolizin-7a(5H)-yl)methoxy)-8,9-dihydro-11H-7-oxa-1,3,6,11-tetraazaspiro[cycloocta[de]naphthalene-10,3′-oxetan]-1(11a), 2,3a, 3a^1(6a), 5-pentaen-5-yl)-4-(trifluoromethyl)aniline]
- IC50 [1]: 0.76 nM
- IC50 [2]: 0.76 nM

Structure (SMILES): CN1CCC[C@@]2(COc3nc4c5c(nc(-c6cc(N)cc(Cl)c6C(F)(F)F)c(F)c5n3)O[C@H]3COCC[C@@H]3N4C)CCC[C@@H]12 [Example 64, 3-chloro-5-((7aR,11aS)-4-fluoro-12-methyl-2-(((4aS,7aR)-1-methyloctahydro-4aH-cyclopenta[b]pyridin-4a-yl)methoxy)-7a, 8,10,11,11a, 12-hexahydro-7,9-dioxa-1,3,6,12-tetraazapleiaden-5-yl)-4-(trifluoromethyl)aniline]
- IC50 [1]: 0.23 nM
- IC50 [2]: 0.23 nM

Structure (SMILES): Cc1cc(N)cc(-c2nc3c4c(nc(OC[C@@]56CCCN5C[C@H](F)C6)nc4c2F)N(C)[C@@H]2COCC[C@H]2O3)c1C(F)(F)F [Example 61, 3-((7aR,11aR)-4-fluoro-2-(((2R,7aS)-2-fluorotetrahydro-1H-pyrrolizin-7a(5H)-yl)methoxy)-12-methyl-7a, 8,11a, 12-tetrahydro-9H, 11H-7,10-dioxa-1,3,6,12-tetraazapleiaden-5-yl)-5-methyl-4-(trifluoromethyl)aniline]
- IC50 [1]: 0.81 nM
- IC50 [2]: 0.81 nM

Structure (SMILES): Cc1cc(N)cc(-c2nc3c4c(nc(OC[C@]56CCC[C@H]5N(C)CCC6)nc4c2F)N(C)[C@H]2CCOC[C@@H]2O3)c1C(F)(F)F [Example 65, 3-((7aR,11aS)-4-fluoro-12-methyl-2-(((4aS,7aR)-1-methyloctahydro-4aH-cyclopenta[b]pyridin-4a-yl)methoxy)-7a, 8,10,11,11a, 12-hexahydro-7,9-dioxa-1,3,6,12-tetraazapleiaden-5-yl)-5-methyl-4-(trifluoromethyl)aniline]
- IC50 [1]: 0.61 nM
- IC50 [2]: 0.61 nM

Structure (SMILES): CN1c2nc(OC[C@@]34CCCN3C[C@H](F)C4)nc3c(F)c(-c4cc(N)cc(Cl)c4C(F)(F)F)nc(c23)OCCC12CC2 [Example 31, 3-chloro-5-(4-fluoro-2-(((2R,7aS)-2-fluorotetrahydro-1H-pyrrolizin-7a(5H)-yl)methoxy)-11-methyl-8,9-dihydro-11H-7-oxa-1,3,6,11-tetraazaspiro[cycloocta[de]naphthalene-10,1′-cyclopropan]-1(11a), 2,3a, 4,6-pentaen-5-yl)-4 (trifluoromethyl)aniline]
- IC50 [1]: 0.8 nM
- IC50 [2]: 0.8 nM

Structure (SMILES): CN1c2nc(OC[C@@]34CCCN3C[C@H](F)C4)nc3c(F)c(-c4cc(N)cc(Cl)c4C(F)(F)F)nc(c23)OCCC12COC2 [Example 30, 3-chloro-5-(4-fluoro-2-(((2R,7aS)-2-fluorotetrahydro-1H-pyrrolizin-7a(5H)-yl)methoxy)-11-methyl-8,9-dihydro-11H-7-oxa-1,3,6,11-tetraazaspiro[cycloocta[de]naphthalene-10,3′-oxetan]-1(11a), 2,3a, 3a^1(6a), 5-pentaen-5-yl)-4-(trifluoromethyl)aniline]
- IC50 [1]: 1.1 nM
- IC50 [2]: 1 nM

Structure (SMILES): C[C@@H]1C[C@H](C)Oc2nc(-c3cc(N)cc(Cl)c3C(F)(F)F)c(F)c3nc(OC[C@@]45CCCN4C[C@H](F)C5)nc(c23)N1C [Example 34, 3-chloro-5-((8S,10R)-4-fluoro-2-(((2R,7aS)-2-fluorotetrahydro-1H-pyrrolizin-7a(5H)-yl)methoxy)-8,10,11-trimethyl-8,9,10,11-tetrahydro-7-oxa-1,3,6,11-tetraazacycloocta[de]naphthalen-5-yl)-4-(trifluoromethyl)aniline]
- IC50 [1]: 1 nM
- IC50 [2]: 1 nM

Structure (SMILES): CN1c2nc(OC[C@@]34CCCN3C[C@H](F)C4)nc3c(F)c(-c4cc(N)cc(Cl)c4C(F)(F)F)nc(c23)O[C@@H]2CCOC[C@H]21 [Example 51, 3-chloro-5-((7aR,11aR)-4-fluoro-2-(((2R,7aS)-2-fluorotetrahydro-1H-pyrrolizin-7a(5H)-yl)methoxy)-12-methyl-7a, 8,11a, 12-tetrahydro-9H, 11H-7,10-dioxa-1,3,6,12-tetraazapleiaden-5-yl)-4-(trifluoromethyl)aniline]
- IC50 [1]: 0.67 nM
- IC50 [2]: 0.67 nM

Structure (SMILES): C=C1CN2CCC[C@@]2(COc2nc3c4c(nc(-c5cc(N)cc(Cl)c5C(F)(F)F)c(F)c4n2)O[C@H]2COCC[C@@H]2N3C)C1 [Example 62, 3-chloro-5-((7aR,11aS)-4-fluoro-12-methyl-2-(((S)-2-methylenetetrahydro-1H-pyrrolizin-7a(5H)-yl)methoxy)-7a, 8,10,11,11a, 12-hexahydro-7,9-dioxa-1,3,6,12-tetraazapleiaden-5-yl)-4-(trifluoromethyl)aniline]
- IC50 [1]: 0.54 nM
- IC50 [2]: 0.54 nM
